Tested on: MAP kinase cascade activation
Test: Reporter activity reflecting MAP kinase cascade activation, corrected using an internal control (Elk1-GAL4 luciferase reporter in 293-EBNA cells)
Format: cell-based, human
Conditions: for Reporter activity corrected with internal control, as a factor of null vector (S/B value): 293-EBNA cells, 24 hours
Description: (in the presence of 5% CO2). […] The method used for introduction was in accordance with the attached protocol. After culturing for 24 hours at 37° C., reporter activity (firefly luciferase acitivity), which reflects MAP kinase cascade activation, and reporter activity being the internal control (sea pansy luciferase) were measured using Picagene Dual (purchased from Toyo Ink Manufacturing) in accordance with the manufacturer's instructions.
Luciferase activity was measured with Perkin Elmer's Wallac ARVOTMST 1420 MULTILABEL COUNTER.
Reporter activity where an expression plasmid comprising the above gene was introduced, which reflects MAP kinase cascade activation corrected with internal control reporter activity, is shown in Table 1, which is expressed as a factor of the same reporter activity where a null vector was introduced (S/B value).

B1: 22 (protein, listed as Homo sapiens)
chain: MADGPDEYDTEAGCVPLLHPEEIKPQSHYNHGYGEPLGRKTHIDDYSTWDIVKATQYGIYERCRELVEAGYDVRQPDKENVTLLHWAAINNRIDLVKYYISKGAIVDQLGGDLNSTPLHWATRQGHLSMVVQLMKYGADPSLIDGEGCSCIHLAAQFGHTSIVAYLIAKGQDVDMMDQNGMTPLMWAAYRTHSVDPTRLLLTFNVSVNLGDKYHKNTALHWAVLAGNTTVISLLLEAGANVDAQNIKGESALDLAKQRKNVWMINHLQEARQAKGYDNPSFLRKLKADKEFRQKVMLGTPFLVIWLVGFIADLNIDSWLIKGLMYGGVWATVQFLSKSFFDHSMHSALPLGIYLATKFWMYVTWFFWFWNDLNFLFIHLPFLANSVALFYNFGKSWKSDPGIIKATEEQKKKTIVELAETGSLDLSIFCSTCLIRKPVRSKHCGVCNRCIAKFDHHCPWVGNCVGAGNHRYFMGYLFFLLFMICWMIYGCISYWGLHCETTYTKDGFWTYITQIATCSPWMFWMFLNSVFHFMWVAVLLMCQMYQISCLGITTNERMNARRYKHFKVTTTSIESPFNHGCVRNIIDFFEFRCCGLFRPVIVDWTRQYTIEYDQISGSGYQLV
Reporter activity corrected with internal control, as a factor of null vector (S/B value) (25 ng/well expression plasmid): 24.2
Reporter activity corrected with internal control, as a factor of null vector (S/B value) (50 ng/well expression plasmid): 50.8
Reporter activity corrected with internal control, as a factor of null vector (S/B value) (100 ng/well expression plasmid): 69.3
Dependence of corrected reporter activity on amount of expression plasmid (plasmid 12.5 ng, 25 ng, 50 ng and 100 ng): increases that were dependent on the amount of expression plasmid
